Measured values taken from PubChem BioAssay (NCATS).
Inconclusive results, whose numbers are uncertain, are shown with a selection of clear calls. For some of these results: Where the call is inconclusive, the potency comes from a doubtful curve fit. Calls of active or inactive are those of the source. Unless noted, calls follow the shape of the dose curve; as a rule, active = well fitted curve in the direction sought with a large enough effect; inconclusive = small, poorly fitted or top-dose-only effect, or another doubt; inactive = no such curve, though single readings can be large; an effect the other way counts as inactive or inconclusive.

Key:
[1] = target: Aldehyde dehydrogenase, mitochondrial (Homo sapiens) (UniProt P05091); assay: qHTS for Inhibitors of the Aldehyde Dehydrogenase Family (ALDH2) Confirmatory screens (AID 2061303; active = well fitted inhibition curve with a large enough effect; inconclusive = small, poorly fitted or top-dose-only effect; inactive = no such curve, though single readings can be large or run the other way; title and protocol of this record describe different tests; also: nearly all actives have a fitted effect of over 45% in size; also: potency is read from the fitted curve at half-maximal effect); settings: ALDH inhibition qHTS; activity change, negative = inhibition: at 45.4 µM (top of the series)
[2] = qHTS for Inhibitors of the Aldehyde Dehydrogenase Family (ALDH1A2, ALDH1A3, ALDH2, ALDH3A1) (AID 2061307); settings: ALDH inhibition qHTS; activity change, negative = inhibition: at 50.3 µM (top of the series) unless noted; also: nearly all actives have a fitted effect of over 50% in size; as to potency: test system not described further here; potency is read from the fitted curve at half-maximal effect
[3] = target: Retinaldehyde dehydrogenase 3 (Homo sapiens) (UniProt P47895); assay: qHTS for Inhibitors of the Aldehyde Dehydrogenase Family (ALDH1A3) Confirmatory screens (AID 2061311); settings: activity change, negative = inhibition: at 46 µM (top of the series); also: nearly all actives have a fitted effect of over 60% in size; also: potency is read from the fitted curve at half-maximal effect
[4] = target: Aldehyde dehydrogenase 1A1 (Homo sapiens) (UniProt P00352); assay: qHTS for Inhibitors of the Aldehyde Dehydrogenase Family (ALDH1A1) Confirmatory screens (AID 2061316); settings: activity change, negative = inhibition: at 47.3 µM (top of the series); also: nearly all actives have a fitted effect of over 65% in size; also: potency is read from the fitted curve at half-maximal effect
[5] = BET inhibitor-based combinations targeting novel dependencies in MECOM-rearranged (r) AML: OCI-AML3 cell line (AID 2202232); settings: CellTiter-Glo luminescence, 48 h; Potency: OCI-AML3 viability; viability (% of control): at 46 µM (top of the series); also: nearly all actives have a fitted effect of over 35% in size
Summary of the method: (§1)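 Cells were plated at 500 per well and exposed to an 11-point dose series of each drug for 48 hr. Viability was measured by CellTiter-Glo luminescence, normalized to DMSO and empty-well controls, and summarized as AUC and per-cell-line Z-AUC.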

[6] = BET inhibitor-based combinations targeting novel dependencies in MECOM-rearranged (r) AML: MV-4-11 cell line (AID 2202233); settings: MV-4-11 AML viability, CellTiter-Glo luminescence, 48 h; series mostly up to 46 µM; also: nearly all actives have a fitted effect of over 45% in size; also: potency is read from the fitted curve at half-maximal effect
Summary of the method: (§2)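 Activity is given as area under the curve and as Z-AUC, mean-centred within each cell line. It comes from 11-point dose curves normalized to DMSO and empty wells. CellTiter-Glo luminescence was read after 48 hr drug exposure of 500 cells/well.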

[7] = target: Retinaldehyde dehydrogenase 3 (Homo sapiens) (UniProt P47895); assay: qHTS for Inhibitors of the Aldehyde Dehydrogenase Family (ALDH1A3) Validation screen (AID 2061312); settings: ALDH1A3 enzyme inhibition qHTS validation, fluorescence; activity change, negative = inhibition: at 84.7 µM (top of the series); also: potency is read from the fitted curve at half-maximal effect; nearly all actives have a fitted effect of over 45% in size
[8] = target: Retinal dehydrogenase 2 (Homo sapiens) (UniProt O94788); assay: qHTS for Inhibitors of the Aldehyde Dehydrogenase Family (ALDH1A2) Confirmation screens (AID 2061314); settings: activity, negative = inhibition: at 45.9 µM (top of the series) unless noted; also: potency is read from the fitted curve at half-maximal effect; nearly all actives have a fitted effect of over 65% in size
[9] = BET inhibitor-based combinations targeting novel dependencies in MECOM-rearranged (r) AML: UCSD-AML1 cell line (AID 2202235); settings: UCSD-AML1 AML cells viability, CellTiter-Glo, 48 h; viability (% of control): at 46 µM (top of the series); also: nearly all actives have a fitted effect of over 40% in size
Summary of the method: as §2

[10] = BET inhibitor-based combinations targeting novel dependencies in MECOM-rearranged (r) AML: AML-194 cell line (AID 2202237; also: nearly all actives have a fitted effect of over 40% in size)
Summary of the method: as §1
Tags tell the direction and shape of the fitted curve.

Structure (SMILES): COc1ccc(C2=Nn3c(nnc3-c3cccc(OC)c3OC)SC2)c(OC)c1
- Potency [1]: inconclusive: 31.6 µM [inhibitor, partial curve, poor fit]
- Potency [2]: active: 2 µM
- Potency [3]: inconclusive: 25.1 µM [inhibitor, partial curve]
- Potency [4]: inactive

Structure (SMILES): CCc1ccc(-n2c(=O)c3cccnc3n2CC(=O)Nc2cc(F)ccc2F)cc1
- Potency [1]: inactive
- Potency [2]: inactive
- Potency [3]: inconclusive: 25.1 µM [inhibitor, partial curve]
- Potency [4]: inconclusive: 18.2 µM [inhibitor, partial curve]

Structure (SMILES): CC1(C)CC2CC(C)(CN2S(=O)(=O)c2ccc(C(=O)Nc3cccc(S(=O)(=O)N4CCOCC4)c3)cc2)C1 (configuration not stated)
- Potency [1]: active: 0.355 µM
- Potency [2]: active: 0.447 µM
- Potency [3]: inconclusive: 1 µM [inhibitor, full curve]
- Potency [4]: inactive

Structure (SMILES): O=C(Nc1nc(-c2ccccc2)cs1)c1ccncc1NS(=O)(=O)c1ccc(Cl)cc1
- Potency [1]: inconclusive: 25.2 µM [inhibitor, partial curve]
- Potency [2]: active: 25.2 µM
- Potency [3]: inconclusive: 7.94 µM [inhibitor, full curve]
- Potency [4]: inconclusive: 31.8 µM [inhibitor, single point]

Structure (SMILES): CC(C)NCC(O)c1ccc(O)c(O)c1 (configuration not stated)
- Potency [1]: inactive
- Potency [2]: inactive
- Potency [3]: inactive
- Potency [4]: inactive
- Potency [5]: inactive
- Potency [6]: inactive

Structure (SMILES): O=S(=O)(Nc1nccs1)c1ccc(Nc2nc(-c3ccc(F)cc3)cs2)cc1
- Potency [1]: inconclusive: 11.3 µM [inhibitor, partial curve]
- Potency [2]: inconclusive: 10.1 µM [inhibitor, partial curve]
- Potency [3]: inconclusive: 12.7 µM [inhibitor, partial curve]
- Potency [4]: active: 11.3 µM

Structure (SMILES): COc1ccc(C2Nc3ccccc3C(=O)N2Cc2ccccc2)cc1COc1ccc(C#N)cc1 (configuration not stated)
- Potency [1]: inconclusive: 11.3 µM [inhibitor, partial curve]
- Potency [2]: active: 1.01 µM
- Potency [3]: active: 12.6 µM
- Potency [4]: inconclusive: 3.57 µM [inhibitor, full curve]

Structure (SMILES): O=C1CCc2cc(OCCCCc3nnnn3C3CCCCC3)ccc2N1
- Potency [1]: active: 0.631 µM
- Potency [2]: inconclusive: 17.8 µM [inhibitor, partial curve, poor fit]
- Potency [7]: inconclusive: 1.41 µM [inhibitor, full curve]
- Potency [8]: active: 7.94 µM
- Potency [4]: inconclusive: 22.4 µM [inhibitor, partial curve, poor fit]
- Potency [6]: inconclusive: 16.6 µM [inhibitor, partial curve, poor fit]
- Potency [9]: inactive
- Potency [10]: inactive

Structure (SMILES): O=C(NCCc1nc2ccccc2n1CCOc1cccc(Br)c1)C1CCCCC1
- Potency [1]: inactive
- Potency [2]: inactive
- Potency [3]: inconclusive: 28.3 µM [inhibitor, single point]
- Potency [4]: inconclusive: 12.7 µM [inhibitor, partial curve]

Structure (SMILES): Nc1cccc(CNc2ccc(S(=O)(=O)Nc3nccs3)cc2)c1O
- Potency [1]: inconclusive: 14.2 µM [inhibitor, partial curve]
- Potency [2]: inconclusive: 17.9 µM [inhibitor, partial curve]
- Potency [3]: active: 10.1 µM
- Potency [4]: active: 11.3 µM

Structure (SMILES): OC[C@H]1O[C@@H](n2cnc3c2NC=NC[C@H]3O)C[C@@H]1O
- Potency [1]: inactive
- Potency [2]: inactive
- Potency [3]: inactive
- Potency [4]: inactive
- Potency [5]: inactive

Structure (SMILES): COc1cccc(CNC(=O)Nc2nc(-c3ccncc3)cs2)c1
- Potency [1]: inconclusive: 7.94 µM [inhibitor, partial curve, poor fit]
- Potency [2]: active: 2.01 µM
- Potency [3]: inconclusive: 12.7 µM [inhibitor, partial curve]
- Potency [4]: inconclusive: 6.34 µM [inhibitor, full curve]

Structure (SMILES): CN(CC(=O)Nc1cccc(N2CCOCC2)c1)Cc1c(O)ccc2ccccc12
- Potency [1]: inconclusive: 11.3 µM [inhibitor, partial curve]
- Potency [2]: active: 5.65 µM
- Potency [3]: active: 12.7 µM
- Potency [4]: active: 4 µM

Structure (SMILES): COc1ccc(C2Oc3ccccc3C(=O)N2Cc2ccccc2)cc1COc1ccc(NC(C)=O)cc1 (configuration not stated)
- Potency [1]: inconclusive: 28.2 µM [inhibitor, partial curve, poor fit]
- Potency [2]: active: 0.283 µM
- Potency [3]: inconclusive: 10 µM [inhibitor, full curve, poor fit]
- Potency [4]: inconclusive: 25.2 µM [inhibitor, partial curve, poor fit]

Structure (SMILES): O=C1CCCC2=C1C(c1cccnc1Cl)N=C(Nc1nc3ccccc3o1)N2 (configuration not stated)
- Potency [1]: inactive
- Potency [2]: inactive
- Potency [3]: inactive
- Potency [4]: inconclusive: 25.2 µM [inhibitor, partial curve]
